Measurements reported in paper PMC4468608, “A distinct p53 target gene set predicts for response to the selective p53–HDM2 inhibitor NVP-CGM097” (eLife, 2015).
Further values from the same series stand in other lists.

Tested on: cell lines from the Cancer Cell Line Encyclopedia (CCLE)
Assay: High-throughput cell viability assay, CCLE cell line panel (n = 356)
Type: cell-based, human
Description: Cell lines were partitioned into sensitive and insensitive groups based on compound potency (IC50). […] All other cell lines were obtained from ATCC (American Type Culture Collection), DSMZ (Deutsche Sammlung von Mikroorganismen und Zellkulturen), and HSRRB (Health Science Research Resources Bank) and cultured in RPMI or Dulbecco's modified Eagle's medium plus 10% FBS (Invitrogen, Carlsbad, CA) at 37°C, 5% CO2.

COc1cc2c(cc1OC(C)C)[C@H](c1ccc(Cl)cc1)N(c1ccc(N(C)C[C@H]3CC[C@H](N4CCNC(=O)C4)CC3)cc1)C(=O)C2 [NVP-CFC218]
Amax (L3.3, TP53 WT): -23.35% | sensitivity call (L3.3, TP53 WT): insensitive (Sensitivity call for each compound was applied according to a cut-off of 4 µM for IC50 and -50% for Amax) | Amax (L-363, TP53 MUT): 1.09% | sensitivity call (L-363, TP53 MUT): insensitive (Sensitivity call for each compound was applied according to a cut-off of 4 µM for IC50 and -50% for Amax) | Amax (LC-1/sq-SF, TP53 MUT): 12.18% | sensitivity call (LC-1/sq-SF, TP53 MUT): insensitive (Sensitivity call for each compound was applied according to a cut-off of 4 µM for IC50 and -50% for Amax) | Amax (LP-1, TP53 MUT): -61.82% | sensitivity call (LP-1, TP53 MUT): insensitive (Sensitivity call for each compound was applied according to a cut-off of 4 µM for IC50 and -50% for Amax) | Amax (LS1034, TP53 MUT): -11.78% | sensitivity call (LS1034, TP53 MUT): insensitive (Sensitivity call for each compound was applied according to a cut-off of 4 µM for IC50 and -50% for Amax) | Amax (LU99, TP53 WT): -74.84% | sensitivity call (LU99, TP53 WT): sensitive (Sensitivity call for each compound was applied according to a cut-off of 4 µM for IC50 and -50% for Amax) | Amax (LUDLU-1, TP53 MUT): -45.77% | sensitivity call (LUDLU-1, TP53 MUT): insensitive (Sensitivity call for each compound was applied according to a cut-off of 4 µM for IC50 and -50% for Amax) | Amax (Loucy, TP53 MUT): -53.62% | sensitivity call (Loucy, TP53 MUT): insensitive (Sensitivity call for each compound was applied according to a cut-off of 4 µM for IC50 and -50% for Amax) | Amax (MC116, TP53 MUT): -73.96% | sensitivity call (MC116, TP53 MUT): insensitive (Sensitivity call for each compound was applied according to a cut-off of 4 µM for IC50 and -50% for Amax) | Amax (MDA-MB-415, TP53 MUT): -55.83% | sensitivity call (MDA-MB-415, TP53 MUT): insensitive (Sensitivity call for each compound was applied according to a cut-off of 4 µM for IC50 and -50% for Amax) | Amax (MDA-MB-453, TP53 WT): -3.32% | sensitivity call (MDA-MB-453, TP53 WT): insensitive (Sensitivity call for each compound was applied according to a cut-off of 4 µM for IC50 and -50% for Amax) | Amax (MDA-MB-468, TP53 MUT): -0.27% | sensitivity call (MDA-MB-468, TP53 MUT): insensitive (Sensitivity call for each compound was applied according to a cut-off of 4 µM for IC50 and -50% for Amax) | Amax (MFE-280, TP53 MUT): -60.45% | sensitivity call (MFE-280, TP53 MUT): insensitive (Sensitivity call for each compound was applied according to a cut-off of 4 µM for IC50 and -50% for Amax) | Amax (MFE-296, TP53 MUT): -4.03% | sensitivity call (MFE-296, TP53 MUT): insensitive (Sensitivity call for each compound was applied according to a cut-off of 4 µM for IC50 and -50% for Amax) | Amax (MFE-319, TP53 MUT): 1.74% | sensitivity call (MFE-319, TP53 MUT): insensitive (Sensitivity call for each compound was applied according to a cut-off of 4 µM for IC50 and -50% for Amax) | Amax (MG-63, TP53 WT): -26.13% | sensitivity call (MG-63, TP53 WT): insensitive (Sensitivity call for each compound was applied according to a cut-off of 4 µM for IC50 and -50% for Amax) | Amax (MIA PaCa-2, TP53 MUT): 1.28% | sensitivity call (MIA PaCa-2, TP53 MUT): insensitive (Sensitivity call for each compound was applied according to a cut-off of 4 µM for IC50 and -50% for Amax) | Amax (MOG-G-CCM, TP53 MUT): -5.90% | sensitivity call (MOG-G-CCM, TP53 MUT): insensitive (Sensitivity call for each compound was applied according to a cut-off of 4 µM for IC50 and -50% for Amax) | Amax (MOLM-13, TP53 WT): -94.52% | sensitivity call (MOLM-13, TP53 WT): sensitive (Sensitivity call for each compound was applied according to a cut-off of 4 µM for IC50 and -50% for Amax) | Amax (MONO-MAC-1, TP53 MUT): -2.52% | sensitivity call (MONO-MAC-1, TP53 MUT): insensitive (Sensitivity call for each compound was applied according to a cut-off of 4 µM for IC50 and -50% for Amax) | Amax (MOR/CPR, TP53 MUT): -1.44% | sensitivity call (MOR/CPR, TP53 MUT): insensitive (Sensitivity call for each compound was applied according to a cut-off of 4 µM for IC50 and -50% for Amax) | Amax (MPP 89, TP53 WT): 3.91% | sensitivity call (MPP 89, TP53 WT): insensitive (Sensitivity call for each compound was applied according to a cut-off of 4 µM for IC50 and -50% for Amax) | Amax (NALM-6, TP53 WT): -96.38% | sensitivity call (NALM-6, TP53 WT): sensitive (Sensitivity call for each compound was applied according to a cut-off of 4 µM for IC50 and -50% for Amax) | Amax (NB-4, TP53 MUT): -20.20% | sensitivity call (NB-4, TP53 MUT): insensitive (Sensitivity call for each compound was applied according to a cut-off of 4 µM for IC50 and -50% for Amax) | Amax (NCI-H211, TP53 MUT): -5.53% | sensitivity call (NCI-H211, TP53 MUT): insensitive (Sensitivity call for each compound was applied according to a cut-off of 4 µM for IC50 and -50% for Amax) | Amax (NCI-H358, TP53 WT): -34.66% | sensitivity call (NCI-H358, TP53 WT): insensitive (Sensitivity call for each compound was applied according to a cut-off of 4 µM for IC50 and -50% for Amax) | Amax (NCI-H441, TP53 MUT): -21.27% | sensitivity call (NCI-H441, TP53 MUT): insensitive (Sensitivity call for each compound was applied according to a cut-off of 4 µM for IC50 and -50% for Amax) | Amax (NCI-H520, TP53 MUT): -1.85% | sensitivity call (NCI-H520, TP53 MUT): insensitive (Sensitivity call for each compound was applied according to a cut-off of 4 µM for IC50 and -50% for Amax) | Amax (NCI-H650, TP53 MUT): -38.20% | sensitivity call (NCI-H650, TP53 MUT): insensitive (Sensitivity call for each compound was applied according to a cut-off of 4 µM for IC50 and -50% for Amax) | Amax (NCI-H747, TP53 MUT): -4.17% | sensitivity call (NCI-H747, TP53 MUT): insensitive (Sensitivity call for each compound was applied according to a cut-off of 4 µM for IC50 and -50% for Amax) | Amax (NCI-H810, TP53 MUT): -5.81% | sensitivity call (NCI-H810, TP53 MUT): insensitive (Sensitivity call for each compound was applied according to a cut-off of 4 µM for IC50 and -50% for Amax) | Amax (NCI-H889, TP53 MUT): 3.61% | sensitivity call (NCI-H889, TP53 MUT): insensitive (Sensitivity call for each compound was applied according to a cut-off of 4 µM for IC50 and -50% for Amax) | Amax (NCI-H1373, TP53 MUT): -0.95% | sensitivity call (NCI-H1373, TP53 MUT): insensitive (Sensitivity call for each compound was applied according to a cut-off of 4 µM for IC50 and -50% for Amax) | Amax (NCI-H1435, TP53 MUT): 1.81% | sensitivity call (NCI-H1435, TP53 MUT): insensitive (Sensitivity call for each compound was applied according to a cut-off of 4 µM for IC50 and -50% for Amax) | Amax (NCI-H1573, TP53 MUT): 7.38% | sensitivity call (NCI-H1573, TP53 MUT): insensitive (Sensitivity call for each compound was applied according to a cut-off of 4 µM for IC50 and -50% for Amax) | Amax (NCI-H1581, TP53 MUT): 1.44% | sensitivity call (NCI-H1581, TP53 MUT): insensitive (Sensitivity call for each compound was applied according to a cut-off of 4 µM for IC50 and -50% for Amax) | Amax (NCI-H1666, TP53 WT): -58.51% | sensitivity call (NCI-H1666, TP53 WT): sensitive (Sensitivity call for each compound was applied according to a cut-off of 4 µM for IC50 and -50% for Amax) | Amax (NCI-H1734, TP53 MUT): 23.48% | sensitivity call (NCI-H1734, TP53 MUT): insensitive (Sensitivity call for each compound was applied according to a cut-off of 4 µM for IC50 and -50% for Amax) | Amax (NCI-H1792, TP53 MUT): -2.85% | sensitivity call (NCI-H1792, TP53 MUT): insensitive (Sensitivity call for each compound was applied according to a cut-off of 4 µM for IC50 and -50% for Amax) | Amax (NCI-H1915, TP53 MUT): 3.71% | sensitivity call (NCI-H1915, TP53 MUT): insensitive (Sensitivity call for each compound was applied according to a cut-off of 4 µM for IC50 and -50% for Amax) | Amax (NCI-H1944, TP53 WT): -55.40% | sensitivity call (NCI-H1944, TP53 WT): insensitive (Sensitivity call for each compound was applied according to a cut-off of 4 µM for IC50 and -50% for Amax) | Amax (NCI-H1975, TP53 MUT): -20.93% | sensitivity call (NCI-H1975, TP53 MUT): insensitive (Sensitivity call for each compound was applied according to a cut-off of 4 µM for IC50 and -50% for Amax) | Amax (NCI-H2052, TP53 WT): -68.74% | sensitivity call (NCI-H2052, TP53 WT): sensitive (Sensitivity call for each compound was applied according to a cut-off of 4 µM for IC50 and -50% for Amax) | Amax (NCI-H2087, TP53 MUT): -22.14% | sensitivity call (NCI-H2087, TP53 MUT): insensitive (Sensitivity call for each compound was applied according to a cut-off of 4 µM for IC50 and -50% for Amax) | Amax (NCI-H2172, TP53 WT): -28.81% | sensitivity call (NCI-H2172, TP53 WT): insensitive (Sensitivity call for each compound was applied according to a cut-off of 4 µM for IC50 and -50% for Amax) | Amax (NCI-H2196, TP53 MUT): -2.21% | sensitivity call (NCI-H2196, TP53 MUT): insensitive (Sensitivity call for each compound was applied according to a cut-off of 4 µM for IC50 and -50% for Amax) | Amax (NCI-H2347, TP53 WT): 1.66% | sensitivity call (NCI-H2347, TP53 WT): insensitive (Sensitivity call for each compound was applied according to a cut-off of 4 µM for IC50 and -50% for Amax) | Amax (NIH:OVCAR-3, TP53 MUT): -3.87% | sensitivity call (NIH:OVCAR-3, TP53 MUT): insensitive (Sensitivity call for each compound was applied according to a cut-off of 4 µM for IC50 and -50% for Amax) | Amax (OC 316, TP53 MUT): -2.87% | sensitivity call (OC 316, TP53 MUT): insensitive (Sensitivity call for each compound was applied according to a cut-off of 4 µM for IC50 and -50% for Amax) | Amax (OCI-AML2, TP53 WT): -84.70%
